# Measurements as given in PubChem BioAssay AID624171 (National Center for Advancing Translational Sciences (NCATS), 2012).
# Out of some 410,000 compounds screened, about 1,200 (0.29%) were called active. Inconclusive results, whose numbers are uncertain, are shown with a selection of clear calls. Calls come from the whole dose curve; as a rule, active = well fitted activation curve with a large enough effect; inconclusive = small, poorly fitted or top-dose-only effect; inactive = flat fitted curve, though single readings scatter. A potency beside an inconclusive call is a rough fit, not a confirmed value.
# Assay: qHTS of Nrf2 Activators; note: nearly all actives have a fitted effect of over 65% in size
# Settings: AREc32 ARE-luciferase reporter (MCF7-derived line), luminescence, 24 h; series mostly up to 46.1 µM
# How it was run: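 Cells of the AREc32 ARE-luciferase line are plated in OPTI-MEM containing 5% FBS and left overnight at 37 deg C. Compounds are pinned in, incubation continues 24 hr, and firefly luciferase signal is then measured.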
# Potency is the fitted concentration of half-maximal effect; tags give direction and shape of the fitted curve.
row,Compound,Potency
1,CC(=O)N/N=C/c1cc(C(C)(C)C)cc(/C=N/NC(C)=O)c1O,inactive
2,Nc1c(Cl)cc(N=Nc2ccccc2)cc1Cl,active: 6.31 µM
3,CC(=O)N1CCc2cc(S(=O)(=O)NCCC(=O)N3CCc4ccccc4C3)ccc21,inactive
4,COc1ccc(NC(C)=O)c([N+](=O)[O-])c1[N+](=O)[O-],"inconclusive: 25.1 µM [activator, single point]"
5,COc1ccc(CCNC(=O)c2ccc3c(c2)N(Cc2ccc(F)cc2)C(=O)c2ccccc2S3(=O)=O)cc1OC,inactive
6,CSc1cccc(NC(=O)c2cccc3cccnc23)c1,"inconclusive: 8.91 µM [activator, partial curve]"
7,COc1ccc(N(CCCN2C(=O)c3cccc4cccc(c34)C2=O)C(=O)c2cccc(OC)c2)cc1,"inconclusive: 2.24 µM [activator, full curve, poor fit]"
8,CC/C(=C\c1oc2cc3ccccc3cc2[n+]1CC)Nc1ccccc1,"inconclusive: 35.5 µM [activator, single point]"
9,O=C(Nc1ccccc1)c1ncoc1-c1ccc(Cl)cc1,"inconclusive: 14.1 µM [activator, partial curve, poor fit]"
10,O=C(CCN1CCOCC1)N1c2ccccc2Sc2ccc(Cl)cc21,"inconclusive: 35.5 µM [activator, single point]"
11,CCc1cc(SC#N)cc(CC)c1NC(=O)CCl,"inconclusive: 31.6 µM [activator, single point]"
12,C(=N\NC1=Nc2cccc3cccc1c23)/c1ccccn1,"inconclusive: 3.16 µM [activator, partial curve, poor fit]"
13,Cc1ccccc1-c1cc(-c2ccccc2O)on1,"inconclusive: 11.2 µM [activator, partial curve, poor fit]"
14,CSCC[C@@H](Nc1nc(-c2ccccc2)nc2c1oc1ccccc12)C(=O)O,"inconclusive: 15.8 µM [activator, single point]"
15,C=CCNc1nc(N)c(C(=C(C#N)C#N)c2ccccc2)s1,"inconclusive: 17.8 µM [activator, single point]"
16,Cc1ccc2c(c1)C(=O)CC(c1ccccc1)S2 (stereo not drawn),"inconclusive: 15.8 µM [activator, partial curve, poor fit]"
17,O=c1cc(-c2cccc(Cl)c2)oc2cccc(O)c12,"inconclusive: 14.1 µM [activator, partial curve, poor fit]"
18,Cc1ccc2nsnc2c1NC(=O)CCl,"inconclusive: 22.4 µM [activator, single point]"
19,CC(=O)Nc1cccc(NC(=O)CSc2ccc(-c3ccco3)nn2)c1,"inconclusive: 12.6 µM [activator, partial curve, poor fit]"
20,O=C(N/N=C/c1ccc(Br)s1)c1cccs1,"inconclusive: 6.31 µM [activator, full curve]"
21,C#CCSc1ncc(-c2ccccc2)cn1,"inconclusive: 22.4 µM [activator, single point]"
22,O=C(Nc1nnc(CCc2ccccc2)s1)c1ccco1,"inconclusive: 12.6 µM [activator, single point]"
23,COc1ccc(-c2cc(NC(C)=O)c3ncc(-c4ccccc4)n3c2)cc1OC,"inconclusive: 15.8 µM [activator, single point]"

row,Compound,Potency
1,CC(C)(C)C1CCc2c(sc(NC(=O)Cn3nnc(-c4ccccc4Cl)n3)c2C#N)C1 (stereo not drawn),inactive
2,CSc1nc2nccc(/C=C\c3ccccc3)n2n1,"inconclusive: 1.78 µM [activator, full curve, poor fit]"
3,O=c1c2ccccc2oc2cc(Br)ccc12,"inconclusive: 7.94 µM [activator, partial curve]"
4,COc1ccccc1N1CCN(C(=O)c2cc(CC(C)C)on2)CC1,inactive
5,Cc1nc(NC(=O)c2ccccc2)sc1C,"inconclusive: 7.08 µM [activator, partial curve]"
6,Cn1c(=O)c2c(nc(N3CCCC3)n2C)n(C)c1=O,inactive
7,COc1ccc(N(CC(=O)Nc2ccc3c(c2)OCCO3)S(=O)(=O)c2c(C)noc2C)cc1,inactive
8,Cc1cccnc1Nc1nc(-c2ccccc2)cs1,active: 3.16 µM
9,COc1cc(NC(=O)CSc2ccc(-c3ccco3)nn2)cc(OC)c1,"inconclusive: 11.2 µM [activator, partial curve, poor fit]"
10,CCCCNC(=O)CSc1c2c(nc3ccc(Cl)cc13)CCCC2,"inconclusive: 22.4 µM [activator, single point]"
11,N/C(=N\OC(=O)c1ccco1)c1ccc(Cl)cc1,"inconclusive: 17.8 µM [activator, partial curve, poor fit]"
12,Cc1cc2oc(C(=O)Nc3cccc(-c4nc5ccccc5o4)c3)c(C)c2cc1Cl,inactive
13,C=C(C)C(=O)OC1(C(F)(F)F)Oc2cc(C)ccc2NC1=O (stereo not drawn),"inconclusive: 12.6 µM [activator, partial curve]"
14,O=C(Nc1cccc(S(=O)(=O)N2CCCCC2)c1)c1ccc([N+](=O)[O-])o1,"inconclusive: 4.47 µM [activator, single point]"
15,Cc1oc2ncn(C)c(=O)c2c1C(=O)N(C)c1ccccc1F,inactive
16,CCOC(=O)c1c(C)oc2cc(Br)c(O)c(Br)c12,"inconclusive: 11.2 µM [activator, partial curve, poor fit]"
17,O=C(CCl)N1CCN2C(=O)c3ccccc3C12c1ccc(Cl)cc1 (stereo not drawn),"inconclusive: 28.2 µM [activator, single point]"
18,C=CCN1C(=O)S/C(=C/c2ccsc2)C1=O,"inconclusive: 28.2 µM [activator, single point]"
19,CC1CC2=C(NC(=S)NC2c2cccc(F)c2)/C(=C/c2cccc(F)c2)C1 (stereo not drawn),inactive
20,CCc1ccc(NC(=O)CSC2=Nc3ccccc3C3=NC(CCC(=O)NCc4cccs4)C(=O)N23)cc1 (stereo not drawn),inactive
21,O=C(/C=C\c1ccco1)Oc1cccc2cccnc12,"inconclusive: 20 µM [activator, partial curve, poor fit]"
22,Cc1csc(NC(=O)c2cnc3ccccc3n2)n1,"inconclusive: 12.6 µM [activator, single point]"
23,c1csc(-c2nc(N3CCCCC3)no2)c1,"inconclusive: 15.8 µM [activator, single point]"

row,Compound,Potency
1,Cc1cc(C)c(NC(=O)c2sc3nc(C)cc(C)c3c2N)c(C)c1,inactive
2,O=c1c(Cl)c(N/N=C/c2ccc(Cl)cc2)cnn1-c1ccccc1,"inconclusive: 1.58 µM [activator, full curve, poor fit]"
3,O=C(CCl)Nc1ccccc1C(=O)Nc1ccc2c(c1)OCO2,"inconclusive: 20 µM [activator, single point]"
4,O=S(=O)(c1c(F)cccc1F)N1CCN(Cc2c(O)ccc3ccccc23)CC1,"inconclusive: 31.6 µM [activator, partial curve, poor fit]"
5,Cc1[nH]nc2c1C(C(C)C)C(C#N)=C(N)O2 (stereo not drawn),"inconclusive: 22.4 µM [activator, single point]"
6,O=C(COC(=O)c1ccccc1NC(=O)c1ccco1)NCCC1=CCCCC1,"inconclusive: 17.8 µM [activator, single point]"
7,O=C(CCl)N1CCN(C(=O)C2COc3ccccc3O2)CC1 (stereo not drawn),"inconclusive: 3.16 µM [activator, single point]"
8,COc1ccc(-n2c(C)ccc2-c2ccccc2)cn1,"inconclusive: 22.4 µM [activator, single point]"
9,Cn1c(CNc2ccccc2O)nc2ccccc21,"inconclusive: 3.98 µM [activator, single point]"
10,CCSc1nc(C2CC2)cc(-c2ccco2)c1C#N,"inconclusive: 12.6 µM [activator, partial curve]"
11,O=C(NC(=S)Nc1ccccc1O)c1ccccc1Cl,"inconclusive: 7.94 µM [activator, partial curve]"
12,CC(C)N1CC(C(=O)Nc2cccc([N+](=O)[O-])c2)CC1=O (stereo not drawn),"inconclusive: 35.5 µM [activator, single point]"
13,COc1ccc(C(=O)C(CN2CCCC2)c2ccccc2)cc1 (stereo not drawn),"inconclusive: 3.55 µM [activator, single point]"
14,CC1(C)Cc2c(cnn2-c2ccccc2)C(=O)/C1=N\NC(=O)c1ccncc1,inactive
15,COc1ccc(/C=C2\CCC/C(=C\c3ccc(OC)c(OC)c3OC)C2=O)c(OC)c1OC,inactive
16,Cc1ccc(CN=Cc2[nH]c3ccc(Br)c(Cl)c3c2O)cc1,"inconclusive: 22.4 µM [activator, single point]"
17,O=C(N=Nc1c(O)[nH]c2ccccc12)c1cccs1,"inconclusive: 2.51 µM [activator, full curve, poor fit]"
18,C=C1C(=O)OC2C1CCC(C)C1C=CC(=O)C12C (stereo not drawn),"inconclusive: 3.16 µM [activator, partial curve, poor fit]"
19,COc1cccc(CNc2nc3cc(-c4cccc(C(F)(F)F)c4)sc3c(=O)n2C)c1,"inconclusive: 0.562 µM [activator, full curve, poor fit]"
20,COc1ccc(/C=C\C(=O)c2c(O)ccc3c(C)cc(=O)oc23)cc1,"inconclusive: 15.8 µM [activator, single point]"
21,Brc1ccccc1-c1nnc(CSc2nnc3sc4ccccc4n23)o1,"inconclusive: 14.1 µM [activator, partial curve, poor fit]"
22,N#CC(=C(O)COC(=O)CCCNC(=O)c1ccc(Cl)cc1)c1nc2ccccc2[nH]1,"inconclusive: 35.5 µM [activator, single point]"
